From the BET-seq Pho4 binding data (Le et al. 2018)
This is one part of the list. The energies were worked out here from pooled read counts, against the library average; single values are noisy.

Each sequence was assayed against T1, Pho4 (S. cerevisiae) (UniProt P07270) (assay: relative binding free energy (BET-seq); higher = weaker binding). Conditions: reference: library average.
T1 sequence: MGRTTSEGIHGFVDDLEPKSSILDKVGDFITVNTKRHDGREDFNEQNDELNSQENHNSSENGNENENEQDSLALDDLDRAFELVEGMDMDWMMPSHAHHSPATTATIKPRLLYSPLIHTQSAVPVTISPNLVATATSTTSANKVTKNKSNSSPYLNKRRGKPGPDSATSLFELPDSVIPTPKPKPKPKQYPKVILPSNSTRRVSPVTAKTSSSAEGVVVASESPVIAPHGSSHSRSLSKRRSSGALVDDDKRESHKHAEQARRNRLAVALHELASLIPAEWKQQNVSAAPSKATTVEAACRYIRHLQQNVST

Sequence	relative binding free energy [kJ/mol]
GCAGTCACGTGTCGGT	0.586
ACGGGCACGTGAGGAG	0.92
TTGCACACGTGCGGGG	-0.0837
GAAAGCACGTGGGGCT	-0.795
CAGTGCACGTGTTCGG	0.251
CAGGACACGTGGGGGG	-0.502
GCTATCACGTGTTGGG	0.753
GTAGTCACGTGTCTTG	0.586
GGTTACACGTGACGTA	1.42
ACGGGCACGTGTAGGA	0.502
TGGCTCACGTGTTAGT	1.34
ATAGTCACGTGGATAG	0.711
GGGGTCACGTGTTTTC	0.502
CGTAACACGTGAAGGG	1.26
TATTTCACGTGATCTG	1.13
TGATTCACGTGTAACG	1.05
TCAAGCACGTGTTTGG	-0.418
GTATTCACGTGGTCTG	0.251
GTAGTCACGTGTAAAT	1.72
TACTGCACGTGGGGCG	-1.05
AGTAACACGTGTTTCT	0
CGTGCCACGTGAGGGG	-0.0837
CTTTGCACGTGGGTTA	-0.669
TTGGGCACGTGGTGGC	-0.586
GTATACACGTGGAGTG	-0.502

Sequence	relative binding free energy [kJ/mol]
TGCATCACGTGCAGGT	0.669
CTTGTCACGTGGACGT	0.0418
TGGGACACGTGGTGGG	0.251
GGATTCACGTGGTTTG	0.962
TTCGGCACGTGGAGTG	-0.293
CAGTTCACGTGTCGGT	1.42
ACAGGCACGTGTATAG	0.335
ACGCGCACGTGAGGGG	0.251
TTGTACACGTGTTTTG	0.544
TGTCTCACGTGTGTCG	0.669
AGCAACACGTGGTTTT	0.0418
AGTGTCACGTGTCCGG	0.0418
GGAGTCACGTGGATTG	0.837
TTGATCACGTGGGGCA	0.293
TTGGTCACGTGAGCGT	0.92
GCAGACACGTGTAGTG	0.628
GGTAACACGTGGGCGC	0.251
GTTTTCACGTGATGGA	1.51
GATGTCACGTGGATAT	0.544
ATCTGCACGTGTAAGA	0.837
TCTGGCACGTGGTAAA	-0.586
TGAAGCACGTGAGGGA	1.05
ACAGGCACGTGGATTG	-0.0837
TTTGACACGTGTAGGC	0.669
TTGGCCACGTGGTTAG	-0.544

Sequence	relative binding free energy [kJ/mol]
GTTTACACGTGTGTAG	0.879
CTGTGCACGTGCGGCG	-0.669
TTGCGCACGTGGAATG	-0.502
TTAGTCACGTGAATTT	1.26
CTTGGCACGTGTAGGC	-0.46
AGGGACACGTGCGTGC	0.0418
ATTATCACGTGGAGGC	0.753
ATCGTCACGTGTTATA	0.544
TGCTTCACGTGGAGCT	0.837
TGTTCCACGTGGGAGG	-0.251
TTTGACACGTGTCGTC	0.544
GGCGACACGTGAGAGG	0.628
CTATACACGTGGTAGG	-0.544
TTCGTCACGTGGGGCT	0.335
TCTAACACGTGTGTTG	-0.293
CTTGTCACGTGGGGGG	-0.377
CGTGTCACGTGAGATG	1.26
TATGCCACGTGTAGTG	-0.126
TAATGCACGTGGAAGT	0.502
TGGATCACGTGGGGCC	0.502
ACGGTCACGTGGGACG	0.209
GCTTGCACGTGTGGGC	0.251
TTAAACACGTGGCGTA	-0.46
CATCGCACGTGGGGAT	-0.209
CTATTCACGTGTTGGA	1.13

Sequence	relative binding free energy [kJ/mol]
TTGAGCACGTGAGATT	1.17
ATGTGCACGTGCAGGT	0.251
TAAGTCACGTGACGTT	0.795
TTGGTCACGTGGGGAG	0.0418
TCGTTCACGTGGTTTA	1.63
TCTGGCACGTGGATGA	0.167
GCCTTCACGTGTGAGG	2.05
AGGCGCACGTGGTGGC	-1.3
TGACACACGTGGGGTG	-1.05
TTGTACACGTGGGCGG	-0.335
TTGCCCACGTGGGGGT	-1.55
TTTTACACGTGGTTCT	0.377
TGAAGCACGTGGAGGT	-0.335
GGTGTCACGTGCATTA	0.544
TTCTTCACGTGGGTCT	0.711
TGGGTCACGTGTTGTG	0.711
TTAATCACGTGTTGGA	0.46
GTTGACACGTGGTACG	-0.0837
TTGGCCACGTGCGGGA	-0.628
AAGTTCACGTGCTTGG	1.05
GGCTACACGTGGGTTG	0.377
AGGCTCACGTGGTGTC	0.46
CGAGCCACGTGGGGGT	-1.67
ATCATCACGTGTAGGG	-0.251
TCTAGCACGTGTTATG	-0.544

Sequence	relative binding free energy [kJ/mol]
ACTTTCACGTGGTGGT	0.669
GGATGCACGTGACGTT	0.669
ATTATCACGTGTCTGT	0.711
CGTGGCACGTGGTATA	-0.92
GCGGTCACGTGAGAGT	1.13
GGGGACACGTGAGGGA	1.09
CGTGACACGTGTGTTA	-0.0418
GTTGGCACGTGGTAGC	-0.46
CGATGCACGTGAGGGA	1.05
CTAAGCACGTGTTGGT	-0.669
AACGTCACGTGGGGAT	0.126
GTGTGCACGTGGTGAT	0.251
ATTGTCACGTGTGGTC	0.418
GAAGTCACGTGAGAGT	1.46
TTGTGCACGTGTAGTC	0.293
GAGTTCACGTGGTGCA	1.13
GGGGACACGTGGTTGA	0.418
GGTGGCACGTGAAGAT	1.26
TTCATCACGTGGGATA	0.669
GTGCACACGTGGAAGT	1.05
GTGCTCACGTGTTTAA	0.879
TATTACACGTGTGTTG	0.167
GCGCTCACGTGGTTGG	0.962
GTGGCCACGTGGAATT	0.669
GTTCGCACGTGGTTTG	0.209

Sequence	relative binding free energy [kJ/mol]
TATTACACGTGGTTAC	0.418
CTAGTCACGTGCGGTA	0.92
CATAGCACGTGGTGTT	-0.335
GTAGGCACGTGTATTG	0.293
GTGGGCACGTGATTTA	0.167
TGGGTCACGTGATTAG	0.795
TGGTTCACGTGAGATT	1.3
TGAGACACGTGGGGTC	-1.21
GTTATCACGTGAATTG	1.72
TTTACCACGTGAGTGT	0.418
GTTATCACGTGAGAAT	1.92
AGGTTCACGTGTATGT	1.3
TGTCGCACGTGTGTAT	-0.586
TTGAGCACGTGATATT	-0.0418
GTATTCACGTGTTAGG	1.34
TGTGGCACGTGGGGTG	-0.795
TTGGTCACGTGAACGA	1.51
GAGTTCACGTGTTATT	1.76
TTTGGCACGTGGAAGA	0.377
TGGGGCACGTGGAGAT	-0.0837
TTGATCACGTGGTGGT	0.628
